Assay results: the RNAGym collection of RNA variant scans (doi:10.7554/elife.90254)
Read counts are not given, so values of variants with three or more changes are uncertain.

B1: OR4K15 (parent)
chain: GUUAACGGUCAUAGGCCAUGGAAACUAGGAGCACCAUUUCGCUGCCAGUGAAGAAAUGAACAAAGAAAAUCUGGGCCAGGCAGGCAUCAAAAGAAAUAGUCUUGCGCUCAACCAGAAAGUCUGUAAUCAUUUUAAGGGUA

Variants of: B1
Experiment: self-cleavage, relative activity (ratio to wild type); higher = more cleavage; in vitro, sequencing; the parent is a self-cleaving ribozyme

Row | Variant | self-cleavage
1 | GUUAACGGUCAUAGGCCAUGGAAACUAGGAGCACCUAUUCGCAGCCAGUGAAGAAAUGAGCAAAGAAAAUCUGGGCCAGGCAGGCAUCAAAAGAAAUAGUCUUGCGCUCAACCAGAAAGUCUGUAAUCAUUUUAAGGGUA | 1.11
2 | GUUAACGGUCAUAGGCCAUGGAAACUAGGAGCACCAUUUCGCUGCCAGUGAAGAAGUGAACAAAGAAAGUCUGGGCCAGGCAAGCAUCAAAAGAAAUAGCCUUGCGCUCAACCAGAAAGUAUGUAAUCAUUUUAAGGGUA | 1.68
3 | GUUAACGGACUUAGGCCAUGGAAACUAGGAGCACCACUUCGCUGCCAGUGAAGAAAUGAACAAAGAAAAUCUGGGCCAGGCAGGCAUCAAAAGAAAUAGUCUUGCGCUCAACCAGAAAGUCUGUAAUCAUUUUAAGGGUA | 1.44
4 | GUUAACGGUCGUAGGCCAUGGAAACUAGGAGCACCAUUUCGCUGCCAGUGAAGAAAUGAACAAAGAAAAUCUGGGCCAGGCAGGCAUCAAAAGAAAUAGCCUUGCGCUCGACCAGAAAGUCUGUAAUCAUUUUAAGGGUA | 0.23
5 | GUUAACGGUCAUAGGCCAUGGAAGCUAGGAGCACCAUUUCGCUGCCAGUGAAGAAAUGAACAAAGAAAAUCUGGGCCAGGCAGGCAUCAGAAGAAAUAGUCUUGCGCUCAACCAGAAAGUCUGUAAUCAUUUUAAGGGCA | 1.03
6 | GUUAACGGUCAUAGGCCAUGGAAACUAGGAGCACCAUUUCGCUGCCAGUGAAGAAAUGAACAAAGAAAGUCUGGGCCAGGCAGGCAUCAAAAGAAAUAGUCUUGCGCUCAGCCUGAAAGUCUGUAAUCAUUUUAAGGGUA | 0.03
7 | GUUAACGGUCAUAGGCCAUGGAAACUAGGAGCACCAUUUCGCUGCCAGUGAAGAAAUGAACAAGGAAAAUCUGGGCCAGGCAGGCAUCAGAAGAAAUAGUCUUGCGCUUAACCAGAAAGUCUGUAAUCAUUUUAAGGGUA | 0.33
8 | GUUAACGGUCAUGGGCCAUGGAAACUAGGAGCACCAUUUCGCUGCCAGUGAAGGAAUGAACAAAGAAAAUCUGGGCCAGGCAGGCAUCGAAAGAAAUAGUCUUGCGCUCAACCAGAAAGUCUGUAAUCAUUUUAAGGGUA | 0.83
9 | GUUAACGGUCAUAGGCCAUGGAAACUAGGAGCACCAUUUCGCAGCCAGUGAAGAAAUGAACAAAGAAAAUCUGGGCCAGGCAGGCAUCAAGAGAAAUAGUCUUGCGCUCAACAAGAAGGUCUGUAAUCAUUUUAAGGGUA | 0.01
10 | GUUAACGGUCAUAGGCCAUGGAGACUAGGAGCACCAUUUCGCUGCCAGUGGAGAAAUGAACAAAGAAAAUCUGGGCCAGGCAGGCACCAAAAGAAAUAGUCUUGCGCUCAACCAGAAAGCCUGUAAUCAUUUUAAGGGUA | 0.86
11 | GUUAACGGUCAUAGGCCAUGGAAACUAGGGGCACCACUUCGCCGCCAGUGAAGAAAUGAACAACGAAAAUCUGGGCCAGGCAGGCAUCAAAAGAAAUAGUCUUACGCUCAACCGGAAAGUCUGUAAUCAUUUUAAGGGUA | 0
12 | GUUAACGGUCAUAGGCCAUGGAAACUGGGAGCACCAUUUCGCUGCCAGUGAAGAAAUGAACAAAGAAAAUCUGGGCCAGGCAGGCAUCAAAAGAAAUAGUCCUGCGCUCAACCAGAACGUCUGUAAUCAUUUUAAGGGUA | 0.89
13 | GUUAACGGUCAUAGGCCAUGGAAACUAGGAGCACCAUUUCGCUGCCGGUGAAGAAAUGAACAAAGAAAAUCCGGGCCAGGCAGGCAUCAAAAGAAAUAGUCUUGCGCUCAACCAGGAAGUCUGUAAUCAUUUUAAGGGUA | 0.12
14 | GUUAACGGUCAUAGGCCAUGGAAACUAGGAGCACCAUUUCGCUGCCAGUGAAGAAAUGAACAAAGAAGAUCUGGGCCAGGCAGGCGUCAAAAGAAGUAGUCUUGCGCUCAACCAGAAAGUCUGUAAUCAUUUUAAGGGUA | 0.62
15 | GUUAACGGUCAUAGGCCAUGGAAACUAGGAGCACCUUUUCGCUGCCAGUGAAGAAAUGAACAAAGAAAAUCUGGCCCAGGCAGGCAUCAAAAGAAAUAGUCUUGCGCUCAACCAGAAAGUCCGUAAUCAUUUCAAGGGUA | 0.13
16 | GUUAACGGACAUAGGCCAUGGAAACUAGGAGCACCACUUCGCUGCCAGUGAAGAAAUGAACAAAGAAAAUCUGGGCCAGGCAGGCAUCAAAAGAAAUAGCCUUGCGCUCAACCAGAAAGUCUGUAAUCAUUUUAAGGGUA | 1.58
17 | GUUAACGGUCAUAGGCCAUGGAAACUAGGAGCACCAUUUCGCUGCCAGUGAAGAAGUGAGCAAAGAAAAUCUGCGCCAGGCAGGCAUCAAAAGAAAUAGUCUUGCGCUCUACCAGGAAGUCUGUAAUCAUUUUAAGGGUA | 0.05
18 | GUUAACGGUCAUAGGCCAUGGAAACUAGGAGUACCAUUUCGCUGCCAGUGAAGAAAUGAACAUAGAAAAUCUGGGCCAGGCAGGCAUCAAAAGAAAUAGUCUUGCGCUCAACCAGAAAGUCUGUAAUCAUUUUAAGGGUU | 1.15
19 | GUUAACGGUCAUAGGCCAUGGAAACUAGGAGCACCAUUCCGCUGCCAGUGAAGAAAUGAACAAAGAAAAUCUGGGCCAGGCAGGCAACAAAAGAAAUAGUCUUGCGCUCAACCAGAAAGUCUGUAACCAUUUUAAGGGUA | 1.57
20 | GUUAACGGUCAUAGGCCAUGGAAACUAGGAGCACCAUUUCGCUGCCAGUGAAGAAAUGAACAAAGAAAAUCUGGGCCAGGCAGGCAUCAAAAGAAAUAGUCUUGCGCUCAACCAGAAAGCCUGUAACCAUUUUGAGGGUA | 1.42
21 | GUUAACGGUCAUAGGCCAUGGAAACUAGGAGCACCAUUUCGCUGCCAGCGAAGAAAUGUACAAAGAGAAUCUGGGCCAGGCAGGCAUCAAAAGAAAUAGUCUUGCGCUCAACCAGAAAGUCUGUAAUCAUUUUAAGGGUA | 1.18

Row | Variant | self-cleavage
22 | GUUAACGGUCAUAGUCCAUGGAAACUGGGAGCACCAUUUCGCUGCCAGUGAAGAAAUGAACAAAGAAAAUCAGGGCCAGGCAGGCAUCAAAAGAAAUAGUCUUGCGCUCAACCAGAAAGUCUGUAAUCAUUUUAAGGGUA | 0.08
23 | GUUAACGGUCAUAGGCGGUGGAAACUAGGAGCACCAUUUCGCUGCCAGUGAAGAAAUGAGCAAAGAAAAUCUGGGCCAGGCAGGCAUCAAAAGAAAUAGUCUUGCGCUCAACCAGAAAGUCUGUAAUCAUUUUAAGGGUA | 1.16
24 | GUUAACGGUCAUAGGCCAUGGAAACUAGGAGCACCAUUUCGCUGCCAGUGUAGUAAUGGGCGAAGAAAAUCUGGGCCAGGCAGGCAUCAAAAGAAAUAGUCUUGCGCUCAACCAGAAAGUCUGUAAUCAUUUUAAGGGUA | 0.75
25 | GUUAACGGUCAUAGGCCAUGGAAACUAGGAGCACCAUCUCGCUGCCAGUGGAGAAAUGAACAAAGAAAAUCUGGGCCAGGCAGGCAUCAAAAGAAAUAGUCUUGCGCUCAACCAGAAAGUCUGCAAUCAUUUUAAGGGUA | 1.31
26 | GUUAACGGUCAUAGGCCAUGGAAACUAGGAGCACCAUUUCACUGCCAGUGAAGAAAUGGGCAAAGAAAAUCUGGGCCAGGCAGGCAUCAAAAGAAAUAGUCUUGCGCUCAACCAGGAAGUCUGUAAUCAUUUUAAGGGUA | 0.61
27 | GUUAACGGUCAUAGGCCAUGGAAACUAGGAGCACCAUUUCGCUGCCAGUGAAGAAAUGAACAAAGAAAAUCUGGGCCAGGCAGGCAUCUAAAGAAAUAGUCUUGCGCUCAACCAGAAGGUCUGUAAUCACUCUAAGGGUA | 0.48
28 | GUUAACGGUCAUAGGCCAUGGAAACUAGGAGCACCAUUUCGCUGCCAGUGAAGAAAUGAACAAAGAAAAUCUGGGCCAGGCAGGCAUCAAAAGAAACAGUCUUGCGCUCAACCAGAAUGCCUGUAAUCAUUUUAAGGGUA | 0.18
29 | GUUAACGGUCAUAGGCCAUGGAAACCAGGAGCACCUUUUCGCUGCCAGUGAAGAAAUGAACAAAGAAAAUCUGGGCCAGGCAGGCAUCCAAAGAAAUAGUCUUGCGCUCAACCAGAAAGUCUGUAAUCAUUUUAAGGGUA | 0.78
30 | GUUAACGGUCGUAGGCCACGGAAACUAGGAGCACCAUUUCGCUGCCAGCGAAGAAGUGAACAAAGAAAAUCUGGGCCGGGCAGGCAUCAAUAGAAAUAGUCUUGCGCUCAACCAGAAAGUCUGUAAUCAUUUUAAGGGUA | 0.45
31 | GUUAACGGUCAAAGGCCAUGGAAACUAGGAGCACCGUUUCGCUGCCAGUGAAGAAAUGAACAAAGAAAAUCUGGGCCAGGCAGGCAUCAAAAGAAAUAGUCUCGCGCUCAACCAGAAAGUCUGUAAUCAUUUUAAGGGUA | 0.46
32 | GUUAACGGUCAUAGGCCAUGGAAACUAGGAGCACAAUUUCGCUGCCAGUGAAGAUAUGAACAAAGAAAAUCUGGGCCAGGCAGGCAUCAAAAGAAAUAGUCUUGCGCUCAACCGGAAAGUCUGUAAUCAUUUUAAGGGUA | 0.32
33 | GUUAACGGUCAUAGGCCUUGGAAACUAGGGGCACCAUUUCGCUGCCCGUGAAGAAAUGAACAAAGAAGAUCUGGGCCAGGCAGGCAUCAAAAGAAAUAGUCUUGCGCUCAACCAGAAAGUCUGUAAUCAUUUUAAGGGUA | 1.15
34 | GUUAACGGUCAUAGGCCAUGGAAACUAGGAGCACCAUUUCGCUGCCGGUUAAGAAAUGAACAAAGAAAAUCUGGGCCAGGCAGGCAUCAAAAGAAACAGUCUUGCGCUCAACCAGAAAGUCUGUAAUCAUUUUAAGGGUA | 1
35 | GUUAACGGUCCUAGGCCAUGGAAACUAGGAGCACCAUUUCGCUGCCAGUGAAGAAAUGAACAAAGAAAAUCUGGGCCAGGCAGGCAUCAAAAGAGAUAGUCUUGCGCUCAACCAGAAAGUCAGUAAUCACUUUAAGGGUA | 1.29
36 | GUUAACGGUCAUAGGCCAUGGAAACUAGGAGCACCAUUCCGCUGCCAGUGAAGAAAUGAGCAAAGAAAAUCUGGGCCAGGCAGGCAUCAAAAGAAAUAGUCUUGCGCUCAGCCAGAAAGUCUGUAAUCAUUUUAAGGGUA | 0.05
37 | GUUAACGGUCAUAGGCCAUGGAAACUAGGAGCACCAUUUCGCUGCCAGUGUAGAAAUGAACAAAGAAAAUCUGGGCCAGGCUGGCAUCAAAAGAAAUAGUCUUGCGCUCAACCAGAAAGUCUGUAAACAUCUUAAGGGUA | 0.2
38 | GUUAGCGGUCAUAGGCCAUGGAAACUAGGAGCACCAUUUCGCUGCCAGUGAAGAGAUGAACAAAGAAAAUCUGGGCCAGGCAGGCAUCAAAAGAAAUAGUCUUGCGCUCAAACAGAAAGUCUGUAAUCAUUUUAAGGGUA | 0
39 | GUUAACGGUCAUAGGCCAUGGAAACUUGGAGCACCAUUUCGCUGCCAGUGGAGAAAUGAACAAAGAAAAUCUGGGCCAGGCAGGCAUCAAAAGAGAUAGUCUUGCGCUCAACCAGAAAGUCUGUAAUCAUUUUAAGGGUA | 1.18
40 | GUUAACGGUCAUAGGCCAUGGAAACUAGGAGCACCAUUUCGCUGCCAGCGAAGAAAUGAACAAAGAAAAUCUGGGCCAGGCAGGCAUCAAAAGAAAUGGUCUUGCGCUCAACCAGAAAGUCUGUGAUCAUUUUAAGGGUA | 0.07
41 | GUUAACGGUCAUAGGCCGUGGAAACUAGGAGCACCAUUUCGCUGCCAGUGAAGAAAUGAACAAAGAAAUUCUGGGCCGGGCAGGCAUCAAAAGAAAUAGUCUUGCGCUCAACCAGAAAGUCUGUAAUCAUUUUAAGGGUA | 0.2
